In the supplement of paper PMC11417369:
The list shows a part of the results.

Test system: PfAP2-HC AP2 domain (GST-tagged)
Test: gcPBM binding intensity (ln(normalized median fluorescence intensity)); higher = stronger DNA binding
Procedure, shortened: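 GST-tagged P. falciparum DNA-binding domains produced in E. coli were incubated for 1 h on an Agilent 4 × 180k array of primer-extended double-stranded 36-bp intergenic genomic probes with negative controls. Binding intensity is the highest Masliner-normalised natural-log median intensity across replicate spots of either probe orientation, with bound protein detected by Alexa488 anti-GST antibody at 488 nm.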

Sequence | gcPBM binding intensity (ln)
ATAGCATATATTTTTTGTACATATGTTATATATATA [XGTACX_site2184] | 9.66
TACAAATATATATGCACACACATATCTGTATATGTG [CACACA_site5663] | 10.1
GAAAAAAAAAAAAATACACACAAATTGGTATATAAC [CACACA_site6315] | 9.96
GCTATAATAAAATTTAAACACACGTAATATAATATA [CACACA_site2592] | 9.65
AAAATTTCATAAAGACGTACTATAAAAATAAAATTA [XGTACX_site4182] | 9.62
AAAAATTCTTGGCGCACACACTTTAAAAGTTAAAAA [CACACA_site6430] | 9.88
GTATATTTCTTTAAATGTACACATTTTTTTAAAGAG [XGTACX_site1225] | 9.42
AATTGTATAAATGGAATAATGACTATGATTATACAT [GTGCAC_negctrl_site188] | 9.84
TATAAAAAATATCCTTTTTTTATACATCAATATATA [TGCATGCA_negctrl_site291] | 9.37
CACTAATAGTGGATTACACACATATAGATGTATATA [CACACA_site7234] | 9.66
AAAATAAGCGTGAAACGTACATATTACATTATTATA [XGTACX_site8914] | 9.74
TATTAAAAGAAAATAACACACACAAAAAAAAAAAAA [CACACA_site8661] | 10.1
ATAATATATATATAGTGTACATTTGAATATATTTGA [XGTACX_site583] | 9.7
AAAAAAAACAGACACACACACAAATATATAAAAATA [CACACA_site1172] | 10.6
TTTTTGAAATAATGAAACAGCAAAAAAACAAAAATA [CACACA_negctrl_site221] | 9.6
AAGGTCATTTTATATTGTACATGAAATTGTTATGTA [XGTACX_site187] | 9.58
TCAATTTGGAACGGTATGCACTAATTTTATATTTTT | 9.77
ATATATTTTGTATGTAGTACAATTTTATAATCATAT [XGTACX_site8373] | 9.61
AATAATGAATACACATGTACAAAAATTTTTCTTACT [XGTACX_site1962] | 9.75
TATTACAAATATGGCACACATATATATATATATATT [CACACA_site3268] | 9.79
ATATACAGATAAATGTGTACTTAAATCTATTATATT [XGTACX_site2632] | 9.65
TTTTAAAATATCAACACACTCATTATTTTCTATATT [CACACA_site4740] | 9.78

Sequence | gcPBM binding intensity (ln)
AAAATAAAAACAAAATCACACATTCCAGTTTTTTTT [CACACA_site5356] | 9.66
TCATTCTATCTGTTCACACATACACAAAAAAAAAAA [CACACA_site5141] | 9.47
TATATACATGTGAGAGTGCATATAGACATAAAAAAT | 9.95
AAAATTTTCTTTTTATGTACACATAATTTTACCGGA [XGTACX_site5276] | 9.5
AAAAGAAAAAGAAAAACACACATAAATATAAATATA [CACACA_site1879] | 10.2
TATATTTTACTCTTCACACATATACTCAATTTATAT [CACACA_site5357] | 9.85
CATATTTGGAAACACACACACATATTTATATATATA [CACACA_site3569] | 10.6
AAATTCAGGTTATATTTTAATTTTTTTTTGTTTTTT [CACACA_negctrl_site924] | 9.55
CATACACATACACATACACACGCATAGAAACATACG [CACACA_site8666] | 10.4
AATTTTTCATCAAGTTGTACAATTATTTGTTTGTTT [XGTACX_site3113] | 10
CAATATTTTTTATAGGGTACAAAAGATAAAAAAAAA [XGTACX_site6298] | 9.68
AAAACAATAATATACTGTACATATATATAATAACAT [XGTACX_site6188] | 9.9
GTACATACATAAAACACACACATATATATATATATA [CACACA_site1826] | 10
TAATTAAAAAATAAAAAAAAAAAAAATTAAAACAAA [CACACA_negctrl_site500] | 9.46
TGCTAATAATTATTTGTTTAGCAACAAAAAAAAAAA [CACACA_negctrl_site1541] | 9.2
TTCTTTTTAATTTATTTTTTCTTATAACAAGAAAAC [CACACA_negctrl_site201] | 9.61
TCACATATGTTCCATTGTACTTGTAGTAATTTTTTC [XGTACX_site6473] | 9.81
GTAATATGTATCCATACACACATACATTTTATTTGC [CACACA_site4640] | 9.98
ATAAAATGAAATATATGTACGCATCACTTGTTGAAC [XGTACX_site4530] | 9.72
TTCTTTTCTTTTTTCTTTTTTTTTTTCTTTTCTTTT [GTGCAC_negctrl_site630] | 9.6
AAAAAAAAAAAAAAAACATGCAAAATAATATATATA [TGCATGCA_site68] | 9.52
AGAAAAGGACATATATGTACTTATCAATATAGAAAC [XGTACX_site1042] | 9.88
